In the supplement of paper PMC7125110:
± gives the standard error. This sample is rich in variants without activity.

B1: glmS ribozyme (parent)
chain: AUAAAAGCGCCAGAACUACAGAAAUGUAGUUGACGAGGAGGAGGUUUAUCGAAUUUUCGGCGGAUGCCUCCAAA

Assays:
Settings in all cases: with glucosamine-6-phosphate
glucosamine-6-phosphate [1] = variants of: B1; assay: self-cleavage kobs at 640 uM GlcN6P; higher = faster cleavage; RNA array
How it was run: (§1)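 Over ~14 h at 37 °C, tiles were imaged as glucosamine-6-phosphate (40 μM to 10 mM) in HEPES/KCl/Mg(OAc)2 buffer flowed across sequenced MiSeq chips. The chips carried barcoded ribozyme variants transcribed in situ by E. coli RNA polymerase and tracked with a hybridised Cy3 probe. After normalisation to baseline and to non-cleaving reference variants, one- or two-exponential decay fits of per-tile medians gave kobs. kcat and KM followed from weighted Michaelis–Menten fits across concentrations.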

glucosamine-6-phosphate [2] = variants of: B1; assay: self-cleavage kobs at 160 uM GlcN6P; higher = faster cleavage; RNA array
How it was run: as §1

glucosamine-6-phosphate [3] = variants of: B1; assay: self-cleavage kobs at 2500 uM GlcN6P; higher = faster cleavage; RNA array
How it was run: as §1

glucosamine-6-phosphate [4] = variants of: B1; assay: self-cleavage kobs at 10000 uM GlcN6P; higher = faster cleavage; RNA array
How it was run: as §1

Variant: U31A G62C C71U
- self-cleavage kobs at 640 uM GlcN6P (glucosamine-6-phosphate [1]): < 1e-05 s⁻¹
- self-cleavage kobs at 160 uM GlcN6P (glucosamine-6-phosphate [2]): < 1e-05 s⁻¹

Variant: A36G G38C
- self-cleavage kobs at 640 uM GlcN6P (glucosamine-6-phosphate [1]): < 1e-05 s⁻¹
- self-cleavage kobs at 2500 uM GlcN6P (glucosamine-6-phosphate [3]): < 1e-05 s⁻¹
- self-cleavage kobs at 10000 uM GlcN6P (glucosamine-6-phosphate [4]): < 1e-05 s⁻¹

Variant: G32A A53C C58U C71A
- self-cleavage kobs at 640 uM GlcN6P (glucosamine-6-phosphate [1]): < 1e-05 s⁻¹

Variant: G38A G66U
- self-cleavage kobs at 640 uM GlcN6P (glucosamine-6-phosphate [1]): < 1e-05 s⁻¹

Variant: A36C A39G A48C
- self-cleavage kobs at 640 uM GlcN6P (glucosamine-6-phosphate [1]): < 1e-05 s⁻¹
- self-cleavage kobs at 2500 uM GlcN6P (glucosamine-6-phosphate [3]): < 1e-05 s⁻¹

Variant: A36U C61G C70A
- self-cleavage kobs at 640 uM GlcN6P (glucosamine-6-phosphate [1]): 0.000101 ± 3e-05 s⁻¹

Variant: A33C G44U C67U
- self-cleavage kobs at 640 uM GlcN6P (glucosamine-6-phosphate [1]): < 1e-05 s⁻¹
- self-cleavage kobs at 2500 uM GlcN6P (glucosamine-6-phosphate [3]): < 1e-05 s⁻¹
- self-cleavage kobs at 10000 uM GlcN6P (glucosamine-6-phosphate [4]): < 1e-05 s⁻¹

Variant: U30C G44U C67U U69A
- self-cleavage kobs at 640 uM GlcN6P (glucosamine-6-phosphate [1]): < 1e-05 s⁻¹

Variant: A36C G38A G40A G51U A64G
- self-cleavage kobs at 640 uM GlcN6P (glucosamine-6-phosphate [1]): < 1e-05 s⁻¹
- self-cleavage kobs at 2500 uM GlcN6P (glucosamine-6-phosphate [3]): < 1e-05 s⁻¹

Variant: C34A G63U A64G
- self-cleavage kobs at 640 uM GlcN6P (glucosamine-6-phosphate [1]): < 1e-05 s⁻¹
- self-cleavage kobs at 2500 uM GlcN6P (glucosamine-6-phosphate [3]): < 1e-05 s⁻¹

Variant: G35C C58G C71A
- self-cleavage kobs at 640 uM GlcN6P (glucosamine-6-phosphate [1]): < 1e-05 s⁻¹
- self-cleavage kobs at 160 uM GlcN6P (glucosamine-6-phosphate [2]): < 1e-05 s⁻¹
- self-cleavage kobs at 2500 uM GlcN6P (glucosamine-6-phosphate [3]): < 1e-05 s⁻¹

Variant: G32A G63C
- self-cleavage kobs at 640 uM GlcN6P (glucosamine-6-phosphate [1]): < 1e-05 s⁻¹
- self-cleavage kobs at 160 uM GlcN6P (glucosamine-6-phosphate [2]): < 1e-05 s⁻¹
- self-cleavage kobs at 2500 uM GlcN6P (glucosamine-6-phosphate [3]): < 1e-05 s⁻¹
- self-cleavage kobs at 10000 uM GlcN6P (glucosamine-6-phosphate [4]): < 1e-05 s⁻¹

Variant: G35C U54G C61G
- self-cleavage kobs at 640 uM GlcN6P (glucosamine-6-phosphate [1]): < 1e-05 s⁻¹
- self-cleavage kobs at 2500 uM GlcN6P (glucosamine-6-phosphate [3]): < 1e-05 s⁻¹

Variant: U31A G35U U65C G66U
- self-cleavage kobs at 640 uM GlcN6P (glucosamine-6-phosphate [1]): < 1e-05 s⁻¹
- self-cleavage kobs at 2500 uM GlcN6P (glucosamine-6-phosphate [3]): < 1e-05 s⁻¹
- self-cleavage kobs at 10000 uM GlcN6P (glucosamine-6-phosphate [4]): < 1e-05 s⁻¹

Variant: A36U U46G U49G
- self-cleavage kobs at 640 uM GlcN6P (glucosamine-6-phosphate [1]): < 1e-05 s⁻¹
- self-cleavage kobs at 160 uM GlcN6P (glucosamine-6-phosphate [2]): < 1e-05 s⁻¹

Variant: U30G G35A G41C A53C U55C U56G C67U
- self-cleavage kobs at 640 uM GlcN6P (glucosamine-6-phosphate [1]): < 1e-05 s⁻¹
- self-cleavage kobs at 2500 uM GlcN6P (glucosamine-6-phosphate [3]): < 1e-05 s⁻¹

Variant: G32C G35A C68A
- self-cleavage kobs at 640 uM GlcN6P (glucosamine-6-phosphate [1]): < 1e-05 s⁻¹
- self-cleavage kobs at 2500 uM GlcN6P (glucosamine-6-phosphate [3]): < 1e-05 s⁻¹

Variant: G38C U47C
- self-cleavage kobs at 640 uM GlcN6P (glucosamine-6-phosphate [1]): < 1e-05 s⁻¹
- self-cleavage kobs at 160 uM GlcN6P (glucosamine-6-phosphate [2]): < 1e-05 s⁻¹
- self-cleavage kobs at 2500 uM GlcN6P (glucosamine-6-phosphate [3]): < 1e-05 s⁻¹
- self-cleavage kobs at 10000 uM GlcN6P (glucosamine-6-phosphate [4]): < 1e-05 s⁻¹

Variant: G32U A33C C68U
- self-cleavage kobs at 640 uM GlcN6P (glucosamine-6-phosphate [1]): < 1e-05 s⁻¹
- self-cleavage kobs at 2500 uM GlcN6P (glucosamine-6-phosphate [3]): < 1e-05 s⁻¹
- self-cleavage kobs at 10000 uM GlcN6P (glucosamine-6-phosphate [4]): < 1e-05 s⁻¹

Variant: A33C G37C C58A G60U
- self-cleavage kobs at 640 uM GlcN6P (glucosamine-6-phosphate [1]): < 1e-05 s⁻¹
- self-cleavage kobs at 2500 uM GlcN6P (glucosamine-6-phosphate [3]): < 1e-05 s⁻¹

Variant: A36U A52U
- self-cleavage kobs at 640 uM GlcN6P (glucosamine-6-phosphate [1]): < 1e-05 s⁻¹
- self-cleavage kobs at 2500 uM GlcN6P (glucosamine-6-phosphate [3]): < 1e-05 s⁻¹

Variant: G35U C71U
- self-cleavage kobs at 640 uM GlcN6P (glucosamine-6-phosphate [1]): < 1e-05 s⁻¹
- self-cleavage kobs at 160 uM GlcN6P (glucosamine-6-phosphate [2]): < 1e-05 s⁻¹
- self-cleavage kobs at 2500 uM GlcN6P (glucosamine-6-phosphate [3]): < 1e-05 s⁻¹
- self-cleavage kobs at 10000 uM GlcN6P (glucosamine-6-phosphate [4]): < 1e-05 s⁻¹

Variant: G35A C71A
- self-cleavage kobs at 640 uM GlcN6P (glucosamine-6-phosphate [1]): < 1e-05 s⁻¹
- self-cleavage kobs at 160 uM GlcN6P (glucosamine-6-phosphate [2]): < 1e-05 s⁻¹
- self-cleavage kobs at 2500 uM GlcN6P (glucosamine-6-phosphate [3]): < 1e-05 s⁻¹
- self-cleavage kobs at 10000 uM GlcN6P (glucosamine-6-phosphate [4]): < 1e-05 s⁻¹

Variant: G29U A36C
- self-cleavage kobs at 640 uM GlcN6P (glucosamine-6-phosphate [1]): < 1e-05 s⁻¹

Variant: G32A U65A
- self-cleavage kobs at 640 uM GlcN6P (glucosamine-6-phosphate [1]): 5.66e-05 ± 1.2e-05 s⁻¹
- self-cleavage kobs at 2500 uM GlcN6P (glucosamine-6-phosphate [3]): 0.000104 ± 1.4e-05 s⁻¹
- self-cleavage kobs at 10000 uM GlcN6P (glucosamine-6-phosphate [4]): 0.000243 ± 4.4e-05 s⁻¹
